This is an account of results in PubChem BioAssay AID1918952 (Molecular Pharmacology Branch, DTP, NCI, 2023).

The test system of the experiment is LG0703-F948-PDC complex spheroid viability. The experiment can be described thus: Anticancer human tumor LG0703-F948-PDC patient-derived lung adenocarcinoma cell line growth inhibition. The conditions noted are these: stronger effect = lower value. From the text: Multicellular complex tumor spheroid response to LSD1 Inhibitor Iadademstat in combination with a variety of drugs and investigational agents in selected tumor cell lines
The current study was undertaken to assess response to LSD1 inhibitors in combination with standard-of-care drugs and investigational agents in solid tumor complex spheroid models as well as in the K-562 leukemia. Complex spheroids include a stromal component modeled by human endothelial cells (HUVEC) and fibroblasts modeled by human mesenchymal stem cells (MSCs). The concentration ranges selected for each drug and investigational agent were based upon clinically achievable concentrations if the clinical Cmax of the agent was known.
Compounds. The drugs and investigational agents used in this study are listed on Table 1. All of the agents used, including staurosporine (NSC755774) and gemcitabine (NSC613327), were obtained from the Developmental Therapeutics Program, NCI. FDA-approved anticancer drugs are available from the NCI at http://dtp.nci.nih.gov/branches/dscb/oncology_drugset_explanation.html. Drugs and investigational agents were >95% pure by proton nuclear magnetic resonance (NMR) and liquid chromatography/mass spectrometry (LC/MS). Stock solutions were prepared at 400x in DMSO, stored at -70 degrees C, and diluted in fresh medium prior to their use. The final concentration of DMSO in cell culture wells never exceeded 0.25% (v/v). The FDA-approved anticancer drug set is available from the Developmental Therapeutics Program at https://dtp.cancer.gov/organization/dscb/obtaining/available_plates.htm. All drugs and investigational agents were tested over a range starting from a high concentration at or near the clinical Cmax and decreasing in half-log increments. If the clinical Cmax for an agent had not been determined, the highest concentration tested was 10 microM.
Cell Lines. The patient-derived cancer cell (PDC) lines: 292921-168-R-J2-PDC, K24384-001-R-PDC, and 521955-158-R2-J5-PDC pancreatic carcinomas, 556581-035-R-J1 ovarian carcinoma, 324938-238-R-J1-PDC, 855422-203-R-J1-PDC and 883617-216-R-J1-PDC urothelial bladder carcinomas, 743489-274-T-PDC renal cell carcinoma, 138582-R-J1 Merkel cell tumor, K60290-347-R-J1 and K57222-313-R-J1-PDC glioblastomas, 653999-131-R-J2-PDC, LG0703-F948-PDC, and 349418-098-R-PDC non-small cell lung carcinomas, 885512-296-R-J2-PDC, 171881-019-R-J1-PDC breast carcinomas and 186277-243-T-J2-PDC and 233499-124-R-J2-PDC colon carcinomas were obtained from the NCI Patient-Derived Models Repository (PDMR, https://pdmr.cancer.gov). The established cell lines NCI/ADR-RES (RRID:CVCL_14520 and OVCAR-5 (RRID:CVCL_1628) ovarian carcinomas, 786-O (RRID:CVCL_1051) and A498 (RRID:CVCL_A498) renal cell carcinoma, NCI-H211 (ATCC, cat. CRL-5824; RRID:CVCL_1529), NCI-H196 (ATCC, cat. CRL-5823, RRID:CVCL_1509), SW 1271 (ATCC, cat. CRL-2177, RRID:CVCL_1716) and NCI-H1876 (ATCC, cat. CRL-5902, RRID:CVCL_1503) small cell lung carcinomas, MDA-MB-231 (RRID:CVCL_0062) and MDA-MB-468 (RRID:CVCL_0419)breast carcinomas (10-12). Pooled donor human umbilical vein endothelial cells (HUVEC, Lonza, cat. CC-2519) and human mesenchymal stem cells (hMSC, Lonza, cat. PT-2501) were purchased from Lonza (Walkersville, MD).
Cell Culture. All cells were maintained in an incubator at 37 degrees C and 5% CO2 with 95% humidity. The PDC lines were cultured according to standard operating procedures established by the NCI PDMR (https://pdmr.cancer.gov). Briefly all PDCs were thawed and cultured in Matrigel-coated flasks prepared with a working solution of 1X Ham's F-12 nutrient mix, without supplementation (Invitrogen, Waltham, MA, cat. 11765054), 100 U/mL penicillin-streptomycin (Invitrogen, cat. 15140122), and 2.5% Matrigel (Corning Inc., Corning, NY, cat. 354248) for the first three passages. […]

Structures are written as SMILES. For part of its entries the source gives two or more results. They are shown here; other results are not. An entry can have further records. Values given together are repeated measurements across runs, samples, wells, individuals or studies. Counts like (3×) stand for listed records that agree.
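Further: spheroids exposed to agents for seven days before readout; 100% = DMSO vehicle control wells as normalization base.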

Consider `NC1CC1c1ccc(-c2cccc(O)c2)cc1` (configuration not stated), for which the viability, T/C runs as follows: (compound alone 0.316 µM) 100, 108 (2×), 99.8, 97.4, 107 (2×), 112 (2×), 116, 97.9 (2×), 105, 98.8, 111 (2×), 88.9, 98.2, 120, 99, 98.7, 96.2, 110, 98.3, 102%; (compound alone 1 µM) 98.4, 114, 102, 95.9, 97.8, 94.5, 104, 90.8, 100 (2×), 91.6 (2×), 92.8, 91.2, 105, 96, 99.2, 82.3, 90, 95.3, 108, 101, 94.8, 95.4%; (compound alone 10 µM) 81, 100, 111, 89.5, 94.5, 103 (2×), 98, 90, 98.6, 97.6, 88.5, 83.1, 90.6, 92.4, 89.7, 104, 91.1, 89.4, 110, 97, 93, 102 (2×), 97.2%.
Turning to `NC1CCC(NC2CC2c2ccccc2)CC1` (configuration not stated), the viability, T/C reads like this: (compound alone 0.1 µM) 88.1, 107, 101 (2×), 87.6, 102 (2×), 96.4, 116, 103 (2×), 97.2, 87.5, 94 (2×), 104, 93, 100, 105, 98, 93.5, 108, 91.6, 96.8%; (compound alone 1 µM) 101 (2×), 104 (2×), 109 (3×), 121 (2×), 117, 120, 97.1, 90.5, 115, 114 (3×), 112, 105 (2×), 102, 110, 119, 98.2, 96.6%; (compound alone 3.16 µM) 127, 119, 117, 111 (3×), 123, 122, 135, 103, 108, 113 (3×), 116 (2×), 118 (3×), 124 (2×), 114, 120 (2×), 99.5%; (compound alone 10 µM) 115, 118, 107 (2×), 99.2, 133, 108, 126, 93.7, 114, 104 (2×), 103, 99.6, 106 (2×), 101, 119, 116, 102, 111, 105, 97.1%.
